PubChem BioAssay AID485294 (National Center for Advancing Translational Sciences (NCATS), 2010)
Among all 370,000 compounds or so, about 150 (0.041%) were called active. Inconclusive results, whose numbers are uncertain, are shown with a selection of clear calls. Calls come from the whole dose curve; as a rule, active = well fitted inhibition curve with a large enough effect; inconclusive = small, poorly fitted or top-dose-only effect; inactive = flat fitted curve, though single readings scatter. Potencies of inconclusive entries are left out as doubtful fits.

Each compound was assayed against Beta-lactamase (Escherichia coli (strain K12)) (UniProt P00811) (assay: qHTS Inhibitors of AmpC Beta-Lactamase (assay with detergent)). Settings: AmpC hydrolysis of nitrocefin, absorbance 480 nm, 0.01% Triton; activity change, negative = inhibition: at 114 µM (top of the series).
UniProt P00811, sequence (P00811 whole entry, looked up): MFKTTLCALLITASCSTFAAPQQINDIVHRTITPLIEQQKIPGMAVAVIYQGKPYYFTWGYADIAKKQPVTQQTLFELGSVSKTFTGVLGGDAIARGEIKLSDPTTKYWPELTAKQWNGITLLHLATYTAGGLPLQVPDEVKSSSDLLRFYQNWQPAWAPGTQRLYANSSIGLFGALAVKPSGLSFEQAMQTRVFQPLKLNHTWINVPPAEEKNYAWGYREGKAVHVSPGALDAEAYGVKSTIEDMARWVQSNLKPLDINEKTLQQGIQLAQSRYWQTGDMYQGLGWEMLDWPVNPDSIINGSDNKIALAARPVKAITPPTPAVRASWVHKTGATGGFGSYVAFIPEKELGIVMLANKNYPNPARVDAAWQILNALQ
In short: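 20 mM phosphate pH 7.0 + 0.01% (detergent screen) or 0.0001% Triton X-100; 5.3 nM AmpC reagent; cpd preinc 15 min RT; nitrocefin (800 uM stock) to start; A480 q20 s × 4 min; Activity was normalised to no-enzyme and no-compound control wells.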
Note: nearly all actives have a fitted effect of over 25% in size.
Potency is the fitted concentration of half-maximal effect; tags give direction and shape of the fitted curve.
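Throughout, for activity change, negative = inhibition: 0% = no-compound wells and -100% = no-enzyme wells.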

Row | Compound | Potency | activity change, negative = inhibition
1 | CCCc1nn(C)c(C(=O)Nc2ccc3ccccc3c2)c1Cl | inconclusive [inhibitor, full curve] | –
2 | COc1cc2[nH]c(=O)n(CCCCCC(=O)N3CCN(c4ccc(Cl)cc4)CC3)c(=O)c2cc1OC | inconclusive [inhibitor, partial curve, poor fit] | –
3 | Cc1occc1C(=O)Nc1ccc(S(N)(=O)=O)cc1 | – | inactive: 0.676%
4 | Fc1cccc(Cl)c1Cc1noc(/C=C/c2ccccc2)n1 | – | inactive: -3.84%
5 | COC(=O)[C@@]12CCCN1[C@H](c1ccc(SC3CCCCC3)cc1)[C@H]1C(=O)N(C)C(=O)[C@H]12 | inconclusive [inhibitor, single point] | –
6 | Cc1cccc(NS(=O)(=O)c2ccc3nc(-c4ccccc4)[nH]c3c2)c1C | inconclusive [inhibitor, single point] | –
7 | O=C(NCCc1ccncc1)Nc1cccc(Cl)c1 | – | inactive: -10.9%
8 | CC(C)(C)CC(=O)N[C@@H](Cc1ccccc1)c1nc2ccccc2[nH]1 | inconclusive [inhibitor, full curve, poor fit] | –
9 | CC(=C/c1ccccc1)/C=N/n1cnnc1 | inconclusive [inhibitor, full curve, poor fit] | –
10 | CCOC(=O)N1CCN(C(=O)CN(C)S(=O)(=O)c2ccc(OC)c(OC)c2)CC1 | inconclusive [inhibitor, full curve, poor fit] | –
11 | O=C(Nc1ccc(N2CCOCC2)c(Cl)c1)c1cccnc1Cl | inconclusive [inhibitor, partial curve] | –
12 | O=C(NCc1ccco1)C1CCN(S(=O)(=O)c2ccc(-n3cnnn3)cc2)CC1 | inconclusive [inhibitor, partial curve] | –
13 | CS(=O)(=O)N1CCC(C(=O)Nc2cc(Cl)c(Cl)cc2Cl)CC1 | inconclusive [inhibitor, partial curve, poor fit] | –
14 | Cc1cccc(Cn2cccc2CNS(=O)(=O)c2ccc(C)c(C)c2)c1 | – | inactive: 6.25%
15 | Cc1noc(C)c1C(=O)Nc1nc(-c2cc(F)ccc2F)cs1 | inconclusive [inhibitor, partial curve, poor fit] | –
16 | Cc1ccc2nc(N3CCN(c4ccccc4F)CC3)c3nnnn3c2c1 | – | inactive: 0.277%
17 | O=C(NCC1CCCCC1)C12CN(Cc3ccccc3)CC1C(c1cccc([N+](=O)[O-])c1)=NO2 (stereo not drawn) | – | inactive: 0.923%
18 | O=c1c2ccccc2[se]n1-c1ccccc1 | inconclusive [inhibitor, single point] | –
19 | COc1ccc(CN(CC(=O)NCc2ccco2)C(=O)CCC(=O)Nc2nccs2)cc1 | inconclusive [inhibitor, full curve, poor fit] | –
20 | CCOC(=O)c1ccc(N2C(=O)CC(Sc3nc(C)cc(C)n3)C2=O)cc1 (stereo not drawn) | inconclusive [inhibitor, full curve, poor fit] | –
21 | Cc1sc(NC(=O)CSC2=NCCS2)nc1-c1ccccc1 | inconclusive [inhibitor, full curve, poor fit] | –
22 | c1ccc(CCNCc2ccccc2)cc1 | inconclusive [inhibitor, full curve, poor fit] | –

Row | Compound | Potency | activity change, negative = inhibition
23 | CCN1CCN(C(c2ccc(C)cc2)c2sc3nc(-c4ccco4)nn3c2O)CC1 (stereo not drawn) | – | inactive: 3.03%
24 | CCOC(=O)C1=C(C)N(c2nonc2NC(C)=O)C(N)=C(C#N)C1c1ccccc1F (stereo not drawn) | inconclusive [inhibitor, single point] | –
25 | COc1ccccc1CCNC1CCCC(C)C1 (stereo not drawn) | inconclusive [inhibitor, full curve, poor fit] | –
26 | COc1cccc(CCNC(=O)C2CCC(=O)N(C3CC3)C2)c1OC (stereo not drawn) | inconclusive [inhibitor, full curve, poor fit] | –
27 | COc1ccccc1-c1ccc(SCC(=O)NC2CCCCC2)nn1 | inconclusive [inhibitor, partial curve] | –
28 | CCN(CC)c1ccc(C(=O)Nc2cccc(F)c2)cc1 | inconclusive [inhibitor, full curve] | –
29 | Cc1cc(C)c(S(=O)(=O)c2cccc(Br)c2C)c(=O)[nH]1 | inconclusive [inhibitor, single point] | –
30 | Cc1ccc(NC(=O)Cc2ccc3c(c2)CCCC3)cc1C | – | inactive: -13%
31 | Cc1ccc(C(=O)/C=C/c2ccc3ncccc3c2)cc1 | inconclusive [inhibitor, partial curve, poor fit] | –
32 | COc1ccc(/C=N/NC(=O)c2cccnc2)c2ccccc12 | – | inactive: -1.28%
33 | Cc1ccc2c(c1)NC(=O)C(CC(=O)O)O2 (stereo not drawn) | inconclusive [inhibitor, full curve] | –
34 | CCOc1ccc(NC(=O)c2ccc3c(c2)N(Cc2ccc(F)cc2)C(=O)CS3=O)cc1 (stereo not drawn) | inconclusive [inhibitor, full curve] | –
35 | Cc1ccc(C)c(NC(=O)CN(C)C(=O)c2oc3c(Cl)cccc3c2C)c1 | inconclusive [inhibitor, full curve] | –
36 | CC1(C)CC(=O)c2sc(NC(=O)c3cccs3)nc2C1 | – | inactive: 3.76%
37 | COc1cc(C(=O)NC(C)c2ccc(S(N)(=O)=O)cc2)ccc1OCC(=O)N1CCOCC1 (stereo not drawn) | inconclusive [inhibitor, single point] | –
38 | S=C(NCc1ccc2c(c1)OCO2)Nc1ccc(-c2nc3ccccc3[nH]2)cc1 | – | inactive: -3.54%
39 | COc1ccc(NC(=O)CSc2nncn2N)c(OC)c1 | inconclusive [inhibitor, full curve, poor fit] | –
40 | COC(=O)Nc1nc(Sc2ncc(C(F)(F)F)cc2Cl)n[nH]1 | inconclusive [inhibitor, partial curve, poor fit] | –
41 | NC(=S)NN=C1C2CC3CC(C2)CC1C3 | inconclusive [inhibitor, full curve, poor fit] | –
42 | CC(O)(C#CCN1CCCCC1)c1ccccc1 (stereo not drawn) | inconclusive [inhibitor, single point] | –
43 | Cc1ccccc1N1C(=O)C2C3C=CC(CC3)C2C1=O (stereo not drawn) | inconclusive [inhibitor, partial curve] | –
